Consider five molecules from PMC3907300.

The target of one experiment is T1, yeast Utp15 (yeast) (UniProt Q04305).
T1 sequence: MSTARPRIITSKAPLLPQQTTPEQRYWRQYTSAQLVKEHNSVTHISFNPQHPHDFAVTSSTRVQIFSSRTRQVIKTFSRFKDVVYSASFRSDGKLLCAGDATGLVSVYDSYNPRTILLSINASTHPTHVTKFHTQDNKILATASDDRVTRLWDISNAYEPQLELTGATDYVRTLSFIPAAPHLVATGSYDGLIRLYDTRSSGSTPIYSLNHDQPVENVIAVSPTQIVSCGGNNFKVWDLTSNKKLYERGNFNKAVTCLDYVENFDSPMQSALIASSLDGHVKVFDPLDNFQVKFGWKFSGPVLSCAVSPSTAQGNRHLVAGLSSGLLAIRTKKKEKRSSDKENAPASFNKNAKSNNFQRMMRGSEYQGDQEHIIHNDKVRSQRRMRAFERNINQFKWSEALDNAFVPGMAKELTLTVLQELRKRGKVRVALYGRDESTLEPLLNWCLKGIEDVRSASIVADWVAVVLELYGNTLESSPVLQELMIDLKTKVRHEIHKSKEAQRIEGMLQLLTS
Description: two-hybrid; yeast proteins: Utp5 constructs in prey vector pGADT7, other t-Utp proteins in bait vector; AH109 yeast strain; growth on AHTL dropout medium after 3-5 days at 30°C.

Another experiment concerns the target T2, yeast Utp4 (yeast) (UniProt Q06679).
T2 sequence: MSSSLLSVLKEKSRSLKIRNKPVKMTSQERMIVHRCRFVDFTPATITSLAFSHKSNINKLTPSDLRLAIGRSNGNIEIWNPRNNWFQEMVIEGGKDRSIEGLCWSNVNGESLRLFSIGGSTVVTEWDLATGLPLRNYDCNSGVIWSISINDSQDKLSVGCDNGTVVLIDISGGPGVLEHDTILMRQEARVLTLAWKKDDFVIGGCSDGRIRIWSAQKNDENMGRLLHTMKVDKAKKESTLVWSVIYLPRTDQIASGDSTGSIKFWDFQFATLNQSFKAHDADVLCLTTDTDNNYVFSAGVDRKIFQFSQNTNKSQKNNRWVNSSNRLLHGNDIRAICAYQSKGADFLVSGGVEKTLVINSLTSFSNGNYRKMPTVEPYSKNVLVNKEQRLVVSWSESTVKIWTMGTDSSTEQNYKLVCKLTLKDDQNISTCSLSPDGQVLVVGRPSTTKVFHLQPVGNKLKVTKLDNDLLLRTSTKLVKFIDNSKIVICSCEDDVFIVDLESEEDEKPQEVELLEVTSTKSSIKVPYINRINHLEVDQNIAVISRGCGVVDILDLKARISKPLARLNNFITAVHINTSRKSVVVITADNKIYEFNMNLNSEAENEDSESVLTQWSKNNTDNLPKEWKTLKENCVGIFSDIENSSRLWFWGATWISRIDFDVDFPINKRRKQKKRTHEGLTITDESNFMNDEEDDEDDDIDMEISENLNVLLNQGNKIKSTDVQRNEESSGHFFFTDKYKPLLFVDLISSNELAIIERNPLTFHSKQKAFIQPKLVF
Described as above.

For experiment [1], the target named is T3, zebrafish C-terminal portion of Wdr43 (357-650aa) (zebrafish) (UniProt Q8JHG6).
T3 sequence: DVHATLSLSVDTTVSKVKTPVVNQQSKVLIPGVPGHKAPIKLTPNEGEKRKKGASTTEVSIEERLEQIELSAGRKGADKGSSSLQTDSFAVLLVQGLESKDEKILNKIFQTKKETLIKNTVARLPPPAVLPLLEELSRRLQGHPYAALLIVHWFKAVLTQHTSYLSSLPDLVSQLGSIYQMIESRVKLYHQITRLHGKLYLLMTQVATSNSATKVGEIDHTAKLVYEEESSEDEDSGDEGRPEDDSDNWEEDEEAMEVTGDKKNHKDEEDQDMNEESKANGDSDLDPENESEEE
Nature of the experiment: two-hybrid; zebrafish proteins: Wdr43 constructs in bait vector pGABT7, Utp4 and Utp15 in prey vector pGADT7; growth in triple dropout medium after 3-5 days at 30°C; tested in both bait and prey constructs.

Experiment [2] deals with T4, zebrafish full length Wdr43 (zebrafish) (UniProt Q8JHG6).
T4 sequence: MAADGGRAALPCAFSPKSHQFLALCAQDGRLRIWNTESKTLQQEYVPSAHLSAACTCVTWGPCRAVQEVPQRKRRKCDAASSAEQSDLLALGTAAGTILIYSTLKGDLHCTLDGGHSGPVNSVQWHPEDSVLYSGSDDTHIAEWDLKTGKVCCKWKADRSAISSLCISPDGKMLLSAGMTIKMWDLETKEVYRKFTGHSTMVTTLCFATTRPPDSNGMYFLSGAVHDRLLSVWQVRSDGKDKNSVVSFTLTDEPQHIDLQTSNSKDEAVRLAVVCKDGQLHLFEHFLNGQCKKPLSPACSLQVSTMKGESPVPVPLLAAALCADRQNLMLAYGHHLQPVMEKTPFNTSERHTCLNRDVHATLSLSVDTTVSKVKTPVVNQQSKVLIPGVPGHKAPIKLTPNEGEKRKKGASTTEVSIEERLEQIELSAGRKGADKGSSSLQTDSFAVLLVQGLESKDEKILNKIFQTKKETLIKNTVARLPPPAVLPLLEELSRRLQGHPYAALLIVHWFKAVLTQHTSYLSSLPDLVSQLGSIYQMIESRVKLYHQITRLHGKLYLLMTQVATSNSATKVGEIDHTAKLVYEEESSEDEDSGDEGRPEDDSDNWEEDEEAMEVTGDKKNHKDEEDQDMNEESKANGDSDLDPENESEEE
The experiment is described as above.

In experiment [3] the target is T5, zebrafish truncated fan mutant Wdr43 (1-356aa) (zebrafish) (UniProt Q8JHG6).
T5 sequence: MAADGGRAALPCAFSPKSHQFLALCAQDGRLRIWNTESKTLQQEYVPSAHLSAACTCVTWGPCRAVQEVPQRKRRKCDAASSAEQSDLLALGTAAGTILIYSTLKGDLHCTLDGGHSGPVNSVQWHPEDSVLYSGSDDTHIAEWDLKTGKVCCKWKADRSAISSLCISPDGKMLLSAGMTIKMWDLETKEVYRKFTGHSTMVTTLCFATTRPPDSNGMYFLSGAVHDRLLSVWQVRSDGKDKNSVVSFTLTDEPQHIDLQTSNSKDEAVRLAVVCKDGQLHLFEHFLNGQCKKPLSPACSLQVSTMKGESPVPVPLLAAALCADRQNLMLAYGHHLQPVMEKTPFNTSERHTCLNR
Described as above.

No constants are given. Whether binding was seen depends on the method and setting. Some binding calls cover weakened binding; strength is not graded here.

B1: yeast Utp5 C-terminal (344-643aa) (domain or fragment, UniProt Q04177 344-643)
chain: DLHGKDLASATNYVEGNARVTSGDNFKHVDDAIKSWERELTSLEQEQAKPPQANELLTETFGDKLESSTVARISGKKTNLKGSNLKTATTTGTVTVILSQALQSNDHSLLETVLNNRDERVIRDTIFRLKPALAVILLERLAERIARQTHRQGPLNVWVKWCLIIHGGYLVSIPNLMSTLSSLHSTLKRRSDLLPRLLALDARLDCTINKFKTLNYEAGDIHSSEPVVEEDEDDVEYNEELDDAGLIEDGEESYGSEEEEEGDSDNEEEQKHTSSKQDGRLETEQSDGEEEAGYSDVEME
Regarding B1, the binding entry with yeast Utp15 (yeast) and with yeast Utp4 (yeast) was “binds” throughout.

B2: yeast Utp5 N-terminal (1-343aa) (domain or fragment, UniProt Q04177 1-343)
chain: MDSPVLQSAYDPSGQYLCYVTVALDKQRVGVQPTQRATSSGVDTVWNENFLYLEDSKLKVTCLKWVNLASSDTVAIILGMNNGEIWLYSVLANEVTYKFTTGNSYEIKDIDLMGNQLWCIDSSDAFYQFDLLQFKLLQHFRINNCVQLNKLTIVPAGDSVAQLLVASHSISLIDIEEKKVVMTFPGHVSPVSTLQVITNEFFISGAEGDRFLNVYDIHSGMTKCVLVAESDIKELSHSGQADSIAVTTEDGSLEIFVDPLVSSSTKKRGNKSKKSSKKIQIVSKDGRKVPIYNAFINKDLLNVSWLQNATMPYFKNLQWREIPNEYTVEISLNWNNKNKSADR
Take B2: the binding result in the experiment with yeast Utp15 (yeast) and in the experiment with yeast Utp4 (yeast) was “no binding” throughout.

B3: yeast full length Utp5 (protein, UniProt Q04177 1-643)
chain: MDSPVLQSAYDPSGQYLCYVTVALDKQRVGVQPTQRATSSGVDTVWNENFLYLEDSKLKVTCLKWVNLASSDTVAIILGMNNGEIWLYSVLANEVTYKFTTGNSYEIKDIDLMGNQLWCIDSSDAFYQFDLLQFKLLQHFRINNCVQLNKLTIVPAGDSVAQLLVASHSISLIDIEEKKVVMTFPGHVSPVSTLQVITNEFFISGAEGDRFLNVYDIHSGMTKCVLVAESDIKELSHSGQADSIAVTTEDGSLEIFVDPLVSSSTKKRGNKSKKSSKKIQIVSKDGRKVPIYNAFINKDLLNVSWLQNATMPYFKNLQWREIPNEYTVEISLNWNNKNKSADRDLHGKDLASATNYVEGNARVTSGDNFKHVDDAIKSWERELTSLEQEQAKPPQANELLTETFGDKLESSTVARISGKKTNLKGSNLKTATTTGTVTVILSQALQSNDHSLLETVLNNRDERVIRDTIFRLKPALAVILLERLAERIARQTHRQGPLNVWVKWCLIIHGGYLVSIPNLMSTLSSLHSTLKRRSDLLPRLLALDARLDCTINKFKTLNYEAGDIHSSEPVVEEDEDDVEYNEELDDAGLIEDGEESYGSEEEEEGDSDNEEEQKHTSSKQDGRLETEQSDGEEEAGYSDVEME
B3: the binding result with yeast Utp15 (yeast) and with yeast Utp4 (yeast) was “binds” each time.

B4: zebrafish Utp15 (protein, UniProt Q7ZW33 1-517)
chain: MASFKPTKVLSYPKLGEKVTEETLYWKNYKPPVQIKEFGAVSKIDFSPLPPHNYAVTASTRVHIYGLHSQEPIRNFTRFHDTAYGGSFRGDGKLLVAGSEEGLIRLFDIGGRVSLRQFKGHSKAVHATSFLSDGFRVLSGSDDLTCRVWDVASAVELSSITEHTDYIRAIAPSKLNPDVFVTGSYDHTVKMFDVRSGNSVMTMQHGQPVECVLLYPSEALLVSTGGRYVKVWDLLKGGQQLVSLKNHHKTVTCACLSSSNKLLTASLDRHVKVYNSSYKVVHNFDCASSILSLAVAPDDEAVAVGMTNGVLSIRHRKHKEEKEALTGRRKRGPSYRFFVKGKNFVPRQDDFLVSKPVRQHLQKYDKQLKRFEVSKALDTALETWTRTTKPEVTVAVIMELNRRGTLKNALAGRDEVSLTKILNFLLKHITDPRFSRPLLTVGDIVLDLYQQVIPQSPVVERLLQRLYEILGREAELQQELLQVLGILDTLFASLMPRKEVASFGAAAAAQESQLQAA
In the case of B4, the binding entry in experiment [1] is recorded as “binds”; in experiment [2], “binds”; in experiment [3], “no binding”.

B5: zebrafish Utp4 (protein, UniProt Q6P125 1-685)
chain: MGEFKVHRVRFFEYVPSGIRALAFNQHNERMAAAKMNGSVEIFHCSDRFFQEKIIPGREQAGIEGLTWVGERLFSAGLNGVITEYDLTNQRVKYTIDAYGGPIWAITGNQQGTHLAVGCEDGTVKLFEVTEDKIQFERNLDRQKGRIISLSWHPSGSKIAAGMMDMIQVFNVETGHSKHRILVDRGYGTSRGKECVVWSVVYLSDGTIISGDSVGMVKMWRDDTGTLIKSHNITKSDVLSLSVSQNEDSIVAGTSEGFVVQFQFLSMVLENNEKDWVRTRTFRNHTHDVRAVAEITTAVVSGGMDTQLVVRPLLDKHEVKSSASKLRKIQFPHRSLVSCARKAGTLLFQYPGHLELWRLGESEGEGIPGSSLLLKRKPEKLLHLKVKGEDHIRCSAVSPCGEWIAYSTTSSLRLYKLHCDSNNVSITKISKLPKVLGSASQLCFSSDSTHLFSASTQSSVHMVSLSQPECKFVATFKTKSGSHQAIHLLAASEDGKWLASANIDNEVHIYNLQTRKAHCTVPIYSSAVSAMAIHPTTNCLFMVHADQQIFEFSIEQKEYTDWSRLVQRQGLHRIWLERDTPCLNVTFNQKNPSHVILHDMYMFCIIDQSQPLPDSKSQFLNQLTLRSLPEEQRKSYSHAFKVCKTFKELLCVDVMGDQSLVVVERPLEDITAQLPAPIKQKKFAT
For B5, the binding entry is listed as “binds” in experiment [1], “binds” in experiment [2] and “no binding” in experiment [3].
